# Reference: PubChem BioAssay AID588591 (National Center for Advancing Translational Sciences (NCATS), 2011)
# Out of some 390,000 compounds screened, about 4,700 (1.2%) were called active. This list was built around the results that the source calls inconclusive (neither active nor inactive); the mix of calls is not that of the screen. Calls follow the shape of the dose curve; as a rule, active = well fitted inhibition curve with a large enough effect; inconclusive = small, poorly fitted or top-dose-only effect, or another doubt; inactive = no such curve, though single readings can be large or run the other way. Where the call is inconclusive, the potency comes from a doubtful curve fit.
# Biological target: DNA polymerase eta (Homo sapiens) (UniProt Q9Y253)
# Chain of UniProt Q9Y253 (Q9Y253 whole entry, looked up): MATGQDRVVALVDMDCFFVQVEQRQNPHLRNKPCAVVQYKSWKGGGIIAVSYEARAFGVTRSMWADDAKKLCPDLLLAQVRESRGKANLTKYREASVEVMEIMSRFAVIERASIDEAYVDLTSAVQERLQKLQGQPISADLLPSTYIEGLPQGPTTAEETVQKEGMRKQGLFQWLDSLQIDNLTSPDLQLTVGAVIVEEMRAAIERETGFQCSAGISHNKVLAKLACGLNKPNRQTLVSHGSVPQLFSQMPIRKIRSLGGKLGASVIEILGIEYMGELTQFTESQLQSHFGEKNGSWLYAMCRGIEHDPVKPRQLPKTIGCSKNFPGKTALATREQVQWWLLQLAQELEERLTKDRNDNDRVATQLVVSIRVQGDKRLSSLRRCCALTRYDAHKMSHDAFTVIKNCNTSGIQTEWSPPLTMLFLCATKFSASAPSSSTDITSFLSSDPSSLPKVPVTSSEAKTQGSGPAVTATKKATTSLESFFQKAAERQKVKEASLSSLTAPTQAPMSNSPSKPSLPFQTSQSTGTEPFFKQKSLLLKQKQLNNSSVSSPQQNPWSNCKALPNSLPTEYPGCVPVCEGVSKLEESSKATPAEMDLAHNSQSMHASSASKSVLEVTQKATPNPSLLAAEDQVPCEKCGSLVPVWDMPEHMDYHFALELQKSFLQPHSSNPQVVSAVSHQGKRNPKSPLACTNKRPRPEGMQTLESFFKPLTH
# Assay: qHTS for Inhibitors of Polymerase Eta
# Conditions: recombinant Pol eta, fluorescent DNA replication assay; series mostly up to 114 µM
# Summary of the method: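 Fluorescent replication assay: 50 nM final substrate added after a 15 min room-temperature compound preincubation with 10 nM enzyme. Signal taken at 0 min and again at 10 min.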
# Potency is read from the fitted curve at half-maximal effect; tags tell the direction and shape of the fitted curve.
row,SMILES,Potency
1,O=C(Nc1nnc(S(=O)(=O)N2CCOCC2)s1)c1ccccc1Br,"inconclusive: 44.7 µM [inhibitor, partial curve]"
2,CCOC(=O)c1ccc(NC(=O)CC2C(=O)N(c3cccc(OC)c3)C(=O)N2Cc2cccnc2)cc1 (stereo not drawn),inactive
3,COc1cccc(NCc2cc(=O)oc3cc(C)c(C(C)C)cc23)c1,"inconclusive: 79.4 µM [inhibitor, partial curve, poor fit]"
4,CC(C)c1ccc(CN2CCC(n3nccc3NC(=O)C3CCCC3)CC2)cc1,"inconclusive: 89.1 µM [inhibitor, partial curve, poor fit]"
5,O=C(O)c1cc([N+](=O)[O-])c(Sc2nc3ccccc3[nH]2)c([N+](=O)[O-])c1,"inconclusive: 56.2 µM [inhibitor, partial curve]"
6,O=C(O)c1cc(=O)n(Cc2ccccc2)c(=O)[nH]1,inactive
7,COc1cccc(C2CC(c3ccc(NS(C)(=O)=O)cc3)=NN2C(=O)c2ccccc2)c1OC (stereo not drawn),"inconclusive: 89.1 µM [inhibitor, partial curve]"
8,COc1ccccc1-n1c(C)cc(/C=C2/C(=N)N3C(=NC2=O)SN=C3S(C)(=O)=O)c1C,active: 79.4 µM
9,CCc1cccc(C)c1NC(=O)CCCn1c(C)c2cnn(-c3ccccc3)c(=O)c2c1C,inactive
10,COc1cc(NC(=O)c2[nH]cnc2C(N)=O)cc(C(=O)Nc2cccc(C(F)(F)F)c2)c1,"inconclusive: 50.1 µM [inhibitor, partial curve]"
11,O=C(/C=C/c1ccccc1)/C=C/c1ccccc1,active: 17.8 µM
12,O=C1c2ccc3c4c(ccc(c24)C(=O)N1NC(=O)C(F)(F)F)CC3,active: 79.4 µM
13,CCc1nc(Nc2ccc(F)c(Cl)c2)c2c3c(sc2n1)CCCC3,inactive
14,O=C(Cn1ncc2c3ccccc3n(Cc3cccc(Cl)c3)c2c1=O)NCCCc1ccccc1,inactive
15,CC(=O)Nc1ccc(S(=O)(=O)N2CCN(Cc3nc4sc(C)c(C)c4c(=O)[nH]3)CC2)cc1,"inconclusive: 79.4 µM [inhibitor, partial curve, poor fit]"
16,Cc1cccc(C)c1NC(=O)Cn1cc(C(=O)c2ccco2)c2ccccc21,"inconclusive: 89.1 µM [inhibitor, single point]"
17,CN(C)CCCN(C(=O)c1ccc([N+](=O)[O-])o1)c1nc2cc3c(cc2s1)OCO3,"inconclusive: 79.4 µM [inhibitor, partial curve]"
18,O=C(NC(Cc1ccccc1)C(=O)O)/C(=C\c1ccco1)NC(=O)c1ccc(Br)cc1 (stereo not drawn),"inconclusive: 17.8 µM [inhibitor, full curve]"
19,Cc1cc(C)c2cc(C=O)c(Cl)nc2c1,"inconclusive: 35.5 µM [inhibitor, partial curve, poor fit]"
20,COc1ccc(C(=O)Nc2nc(-c3ccc([N+](=O)[O-])cc3)c(-c3ccc(OC)cc3)s2)cc1,"inconclusive: 89.1 µM [inhibitor, single point]"
21,Nc1nnc(CC(=O)N/N=C/c2ccc(-c3cccc(C(=O)O)c3)o2)s1,active: 17.8 µM
22,O=C(CSc1nc(-c2ccccc2)nc2ccc(F)cc12)Nc1ccc(C(=O)O)cc1,"inconclusive: 56.2 µM [inhibitor, partial curve, poor fit]"

row,SMILES,Potency
1,Cc1cc(C=O)c(C)n1-c1cc(C(=O)O)cc(C(=O)O)c1,active: 3.98 µM
2,O=C(C1=C(O)C(=O)N(CCN2CCOCC2)C1c1cccc(O)c1)c1cc2ccccc2o1 (stereo not drawn),"inconclusive: 31.6 µM [inhibitor, single point]"
3,Cc1cc(NS(=O)(=O)c2ccc(NC(=O)/C=C/c3ccc(C)o3)cc2)nc(C)n1,active: 44.7 µM
4,COc1cc(/C=C/C(=O)O)cc(S(=O)(=O)NNC(=O)c2cc(C)oc2C)c1OC,active: 17.8 µM
5,CC1Cc2cccc3c(O)c(C(=O)c4nn[nH]n4)c(=O)n1c23 (stereo not drawn),inactive
6,CCOC(=O)c1sc2ncn(C(C)C(=O)OCC)c(=O)c2c1C (stereo not drawn),inactive
7,CCOC(=O)Nc1cc2c(c(N)n1)N=C(c1ccccc1)CN2,"inconclusive: 15.8 µM [inhibitor, full curve, poor fit]"
8,COc1ccccc1NC(=O)c1cccc(S(=O)(=O)N2CCOCC2)c1,inactive
9,CCn1nnc2cc(C(=O)O)ccc21,"inconclusive: 39.8 µM [inhibitor, partial curve, poor fit]"
10,Cc1cc(C(=O)CSc2ncn[nH]2)c(C)n1-c1cccc(S(=O)(=O)N2CCOCC2)c1,"inconclusive: 35.5 µM [inhibitor, partial curve, poor fit]"
11,CCOCCCNC(=O)c1c(N)n(-c2ccc(S(N)(=O)=O)cc2)c2nc3ccccc3nc12,"inconclusive: 28.2 µM [inhibitor, partial curve]"
12,COc1cc(/C=C/c2nc3ccccc3s2)cc(OC)c1O,"inconclusive: 79.4 µM [inhibitor, partial curve, poor fit]"
13,CC1=CCC(C(=O)O)C(C(=O)NC2CCCCC2)C1 (stereo not drawn),active: 20 µM
14,N#Cc1ccsc1NC(=O)COC(=O)C1=NNC(=O)CC1,active: 20 µM
15,COc1cccc(CNC(=O)c2ccc3c(c2)nc2n3CCOC2)c1OC,inactive
16,COc1ccc(/C=C/C(=O)NC(=S)Nc2ccc(S(=O)(=O)Nc3cc(C)on3)cc2)cc1,"inconclusive: 79.4 µM [inhibitor, partial curve]"
17,CC(C)CCCCCCNC(=S)Nc1ccc(S(=O)(=O)N2CCOCC2)cc1,"inconclusive: 56.2 µM [inhibitor, partial curve, poor fit]"
18,Cc1ccc(C(=O)Nc2nnc(S(=O)(=O)N(C)Cc3ccco3)s2)cc1,"inconclusive: 89.1 µM [inhibitor, partial curve, poor fit]"
19,Cc1cc(C)c2c(=O)cc(C(=O)Nc3sc4c(c3C#N)CCCC4)oc2c1,"inconclusive: 100 µM [inhibitor, partial curve, poor fit]"
20,O=C1CCC(C(=O)N(CCO)Cc2ccccc2)CN1CCc1cccc(F)c1 (stereo not drawn),inactive
21,Cc1ccc(C)c(NC(=O)CCC(=O)N2CCOc3ccccc32)c1,inactive
